# Reference: the supplement of paper PMC8728848
# This is one part of the list.
# Key:
# Assay in all cases: glycan array binding signal (z-score within array); higher = stronger binding
# Conditions in all cases: glycan notation: IUPAC condensed, linker removed
# [1] = molecular target: Gal(b1-3)GlcNAc(a1-3)Gal(b1-4)GlcNAc
# Procedure, shortened: (§1)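 Arrays were curated from the Consortium for Functional Glycomics database, 3228 in total, and kept only where the protein sequence was available. Binding is expressed as a within-array Z-score. This score was averaged across arrays of the same protein sequence at different concentrations or buffers and across linkers, and negative values can be read as non-binding.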
# [2] = molecular target: Gal(b1-3)GlcNAc(a1-6)Gal(b1-4)GlcNAc
# Procedure, shortened: as §1
# [3] = molecular target: Gal(b1-3)GlcNAc(b1-2)Man
# Procedure, shortened: as §1
# [4] = molecular target: Gal(b1-3)GlcNAc(b1-2)Man(a1-3)[Gal(b1-3)GlcNAc(b1-2)Man(a1-6)]Man(b1-4)GlcNAc(b1-4)GlcNAc
# Procedure, shortened: as §1
# [5] = molecular target: Gal(b1-3)GlcNAc(b1-2)Man(a1-3)[Gal(b1-3)GlcNAc(b1-2)Man(a1-6)]Man(b1-4)GlcNAc(b1-4)[Fuc(a1-6)]GlcNAc
# Procedure, shortened: as §1
# [6] = molecular target: Gal(b1-3)GlcNAc(b1-2)Man(a1-3)[GlcNAc(b1-4)][Gal(b1-3)GlcNAc(b1-2)Man(a1-6)]Man(b1-4)GlcNAc(b1-4)GlcNAc
# Procedure, shortened: as §1
# [7] = molecular target: Gal(b1-3)GlcNAc(b1-2)[Gal(b1-3)GlcNAc(b1-6)]Man(a1-6)[Gal(b1-3)GlcNAc(b1-2)Man(a1-3)]Man(b1-4)GlcNAc(b1-4)GlcNAc
# Procedure, shortened: as §1
# [8] = molecular target: Gal(b1-3)GlcNAc(b1-3)Gal(b1-3)GlcNAc
# Procedure, shortened: as §1
# [9] = molecular target: Gal(b1-3)GlcNAc(b1-3)Gal(b1-4)Glc
# Procedure, shortened: as §1
# [10] = molecular target: Gal(b1-3)GlcNAc(b1-3)Gal(b1-4)GlcNAc
# Procedure, shortened: as §1
# [11] = molecular target: Gal(b1-3)GlcNAc(b1-3)Gal(b1-4)GlcNAc(b1-2)Man(a1-3)[Gal(b1-3)GlcNAc(b1-3)Gal(b1-4)GlcNAc(b1-2)Man(a1-6)]Man(b1-4)GlcNAc(b1-4)GlcNAc
# Procedure, shortened: as §1
# [12] = molecular target: Gal(b1-3)GlcNAc(b1-3)Gal(b1-4)GlcNAc(b1-2)[Gal(b1-3)GlcNAc(b1-3)Gal(b1-4)GlcNAc(b1-6)]Man(a1-6)[Gal(b1-3)GlcNAc(b1-3)Gal(b1-4)GlcNAc(b1-2)Man(a1-3)]Man(b1-4)GlcNAc(b1-4)[Fuc(a1-6)]GlcNAc
# Procedure, shortened: as §1
# [13] = molecular target: Gal(b1-3)GlcNAc(b1-3)Gal(b1-4)GlcNAc(b1-3)Gal(b1-4)GlcNAc(b1-2)[Gal(b1-3)GlcNAc(b1-3)Gal(b1-4)GlcNAc(b1-3)Gal(b1-4)GlcNAc(b1-6)]Man(a1-6)[Gal(b1-3)GlcNAc(b1-3)Gal(b1-4)GlcNAc(b1-3)Gal(b1-4)GlcNAc(b1-2)Man(a1-3)]Man(b1-4)GlcNAc(b1-4)[Fuc(a1-6)]GlcNAc
# Procedure, shortened: as §1
# [14] = molecular target: Gal(b1-3)GlcNAc(b1-3)Gal(b1-4)GlcNAc(b1-6)[Gal(b1-3)GlcNAc(b1-3)]Gal(b1-4)Glc
# Procedure, shortened: as §1
# [15] = molecular target: Gal(b1-3)GlcNAc(b1-3)Gal(b1-4)[Fuc(a1-3)]GlcNAc(b1-6)[Gal(b1-3)GlcNAc(b1-3)]Gal(b1-4)Glc
# Procedure, shortened: as §1
# [16] = molecular target: Gal(b1-3)GlcNAc(b1-3)GalNAc
# Procedure, shortened: as §1
# [17] = molecular target: Gal(b1-3)GlcNAc(b1-6)Gal(b1-4)GlcNAc
# Procedure, shortened: as §1
# [18] = molecular target: Gal(b1-3)GlcNAc(b1-6)GalNAc
# Procedure, shortened: as §1
# [19] = molecular target: Gal(b1-3)GlcNAc(b1-6)[Gal(b1-3)]GalNAc
# Procedure, shortened: as §1
# [20] = molecular target: Gal(b1-3)GlcNAc6S
# Procedure, shortened: as §1
# [21] = molecular target: Gal(b1-3)[Fuc(a1-4)]GlcNAc
# Procedure, shortened: as §1
# [22] = molecular target: Gal(b1-3)[Fuc(a1-4)]GlcNAc(b1-2)Man
# Procedure, shortened: as §1
# [23] = molecular target: Gal(b1-3)[Fuc(a1-4)]GlcNAc(b1-2)Man(a1-3)[Gal(b1-3)[Fuc(a1-4)]GlcNAc(b1-2)Man(a1-6)]Man(b1-4)GlcNAc(b1-4)[Fuc(a1-6)]GlcNAc
# Procedure, shortened: as §1
# [24] = molecular target: Gal(b1-3)[Fuc(a1-4)]GlcNAc(b1-3)Gal(b1-3)[Fuc(a1-4)]GlcNAc
# Procedure, shortened: as §1
# [25] = molecular target: Gal(b1-3)[Fuc(a1-4)]GlcNAc(b1-3)Gal(b1-4)GlcNAc
# Procedure, shortened: as §1
# [26] = molecular target: Gal(b1-3)[Fuc(a1-4)]GlcNAc(b1-3)Gal(b1-4)[Fuc(a1-3)]GlcNAc
# Procedure, shortened: as §1
# [27] = molecular target: Gal(b1-3)[Fuc(a1-4)]GlcNAc(b1-6)GalNAc
# Procedure, shortened: as §1
# [28] = molecular target: Gal(b1-3)[GlcNAc(b1-6)]GalNAc
# Procedure, shortened: as §1
# [29] = molecular target: Gal(b1-3)[Neu5Ac(a2-6)]GalNAc
# Procedure, shortened: as §1
# [30] = molecular target: Gal(b1-3)[Neu5Ac(a2-6)]GlcNAc(b1-4)Gal(b1-4)Glc
# Procedure, shortened: as §1
# [31] = molecular target: Gal(b1-3)[Neu5Ac(a2-6)]GlcNAc(b1-6)Gal(b1-4)Glc
# Procedure, shortened: as §1
# [32] = molecular target: Gal(b1-3)[Neu5Ac(b2-6)]GalNAc
# Procedure, shortened: as §1
# [33] = molecular target: Gal(b1-4)Gal
# Procedure, shortened: as §1
# [34] = molecular target: Gal(b1-4)GalNAc(a1-3)[Fuc(a1-2)]Gal(b1-4)GlcNAc
# Procedure, shortened: as §1
# [35] = molecular target: Gal(b1-4)GalNAc(b1-3)[Fuc(a1-2)]Gal(b1-4)GlcNAc
# Procedure, shortened: as §1
# [36] = molecular target: Gal(b1-4)Glc
# Procedure, shortened: as §1
# [37] = molecular target: Gal(b1-4)Glc6S
# Procedure, shortened: as §1
binder,measurement,setting,value
Gal 8 (Homo sapiens) (protein) MLSLNNLQNIIYNPVIPYVGTIPDQLDPGTLIVICGHVPSDADRFQVDLQNGSSVKPRADVAFHFNPRFKRAGCIVCNTLINEKWGREEITYDTPFKREKSFEIVIMVLKDKFQVAVNGKHTLLYGHRIGPEKIDTLGIYGKVNIHSIGFSFSSDLQSTQASSLELTEISRENVPKSGTPQLQTVSPSWDLQGHGSETFCSVLWTRVFLEIAFCRPIGLTVASFQSLPFAARLNTPMGPGRTVVVKGEVNANAKSFNVDLLAGKSKDIALHLNPRLNIKAFVRNSFLQESWGEEERNITSFPFSPGMYFEMIIYCDVREFKVAVNGVHSLEYKHRFKELSSIDTLEINGDIHLLEVRSW,glycan array binding signal (z-score),[1],-0.139
same,glycan array binding signal (z-score),[2],-0.356
same,glycan array binding signal (z-score),[3],-0.354
same,glycan array binding signal (z-score),[4],-0.369
same,glycan array binding signal (z-score),[5],-0.352
same,glycan array binding signal (z-score),[6],-0.352
same,glycan array binding signal (z-score),[7],-0.284
same,glycan array binding signal (z-score),[8],-0.267
same,glycan array binding signal (z-score),[9],0.335
same,glycan array binding signal (z-score),[10],-0.211
same,glycan array binding signal (z-score),[11],0.068
same,glycan array binding signal (z-score),[12],0.761
same,glycan array binding signal (z-score),[13],2.98
same,glycan array binding signal (z-score),[14],-0.178
same,glycan array binding signal (z-score),[15],-0.262
same,glycan array binding signal (z-score),[16],-0.359
same,glycan array binding signal (z-score),[17],-0.35
same,glycan array binding signal (z-score),[18],-0.355
same,glycan array binding signal (z-score),[19],-0.313
same,glycan array binding signal (z-score),[20],-0.057
same,glycan array binding signal (z-score),[21],-0.386
same,glycan array binding signal (z-score),[22],-0.347
same,glycan array binding signal (z-score),[23],-0.357
same,glycan array binding signal (z-score),[24],-0.102
same,glycan array binding signal (z-score),[25],-0.076
same,glycan array binding signal (z-score),[26],-0.39
same,glycan array binding signal (z-score),[27],-0.355
same,glycan array binding signal (z-score),[28],-0.334
same,glycan array binding signal (z-score),[29],-0.373
same,glycan array binding signal (z-score),[30],-0.349
same,glycan array binding signal (z-score),[31],-0.055
same,glycan array binding signal (z-score),[32],-0.387
same,glycan array binding signal (z-score),[33],-0.356
same,glycan array binding signal (z-score),[34],0.461
same,glycan array binding signal (z-score),[35],-0.359
same,glycan array binding signal (z-score),[36],-0.199
same,glycan array binding signal (z-score),[37],0.122
